# Laboratory results: the supplement of paper PMC8728848
# Some of the results follow.
# B1: SBD-G4S3-Fc (protein)
# chain: MASIPSSASVQLDSYNYDGSTFSGKIYVKNIAYSKKVTVVYADGSDNWNNNGNIIAASFSGPISGSNYEYWTFSASVKGIKEFYIKYEVSGKTYYDNNNSANYQVSTGGGGSGGGGSGGGGSEFVPRDCGCKPCICTVPEVSSVFIFPPKPKDVLTITLTPKVTCVVVDISKDDPEVQFSWFVDDVEVHTAQTQPREEQFNSTFRSVSELPIMHQDWLNGKEFKCRVNSAAFPAPIEKTISKTKGRPKAPQVYTIPPPKEQMAKDKVSLTCMITDFFPEDITVEWQWNGQPAENYKNTQPIMDTDGSYFVYSKLNVQKSNWEAGNTFTCSVLHEGLHNHHTEKSLSHSPGAA
# What was measured:
# Assay in all cases: glycan array binding signal (z-score within array); higher = stronger binding
# Details in all cases: glycan notation: IUPAC condensed, linker removed
# [1] = target: Fuc(a1-2)Gal
# Procedure, shortened: (§1)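 Glycan array data were curated from 3228 arrays in the Consortium for Functional Glycomics database and kept only where the protein sequence was available. Glycan names were converted to IUPAC-condensed notation, and columns mapping to the same glycan were averaged. The binding signal is a within-array Z-score, averaged across arrays of the same protein sequence at different concentrations or buffers and across linkers. Negative Z-scores can be read as non-binding.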
# [2] = target: Fuc(a1-2)Gal(b1-3)GalNAc
# Procedure, shortened: as §1
# [3] = target: Fuc(a1-2)Gal(b1-3)GalNAc(a1-3)[Fuc(a1-2)]Gal(b1-4)Glc
# Procedure, shortened: as §1
# [4] = target: Fuc(a1-2)Gal(b1-3)GalNAc(a1-3)[Fuc(a1-2)]Gal(b1-4)GlcNAc
# Procedure, shortened: as §1
# [5] = target: Fuc(a1-2)Gal(b1-3)GalNAc(b1-3)Gal
# Procedure, shortened: as §1
# [6] = target: Fuc(a1-2)Gal(b1-3)GalNAc(b1-3)Gal(a1-4)Gal(b1-4)Glc
# Procedure, shortened: as §1
# [7] = target: Fuc(a1-2)Gal(b1-3)GalNAc(b1-4)[Neu5Ac(a2-3)]Gal(b1-4)Glc
# Procedure, shortened: as §1
# [8] = target: Fuc(a1-2)Gal(b1-3)GlcNAc
# Procedure, shortened: as §1
# [9] = target: Fuc(a1-2)Gal(b1-3)GlcNAc(b1-2)Man(a1-3)[Fuc(a1-2)Gal(b1-3)GlcNAc(b1-2)Man(a1-6)]Man(b1-4)GlcNAc(b1-4)GlcNAc
# Procedure, shortened: as §1
# [10] = target: Fuc(a1-2)Gal(b1-3)GlcNAc(b1-2)Man(a1-3)[Fuc(a1-2)Gal(b1-3)GlcNAc(b1-2)Man(a1-6)]Man(b1-4)GlcNAc(b1-4)[Fuc(a1-6)]GlcNAc
# Procedure, shortened: as §1
# [11] = target: Fuc(a1-2)Gal(b1-3)GlcNAc(b1-3)Gal(b1-4)Glc
# Procedure, shortened: as §1
# [12] = target: Fuc(a1-2)Gal(b1-3)GlcNAc(b1-3)GalNAc
# Procedure, shortened: as §1
# [13] = target: Fuc(a1-2)Gal(b1-3)GlcNAc(b1-3)[Fuc(a1-2)Gal(b1-3)GlcNAc(b1-6)]GalNAc
# Procedure, shortened: as §1
# [14] = target: Fuc(a1-2)Gal(b1-3)GlcNAc(b1-3)[Gal(b1-4)GlcNAc(b1-6)]Gal(b1-4)Glc
# Procedure, shortened: as §1
# [15] = target: Fuc(a1-2)Gal(b1-3)GlcNAc(b1-3)[Neu5Ac(a2-6)Gal(b1-4)GlcNAc(b1-6)]Gal(b1-4)Glc
# Procedure, shortened: as §1
# [16] = target: Fuc(a1-2)Gal(b1-3)GlcNAc6S
# Procedure, shortened: as §1
# [17] = target: Fuc(a1-2)Gal(b1-3)[Fuc(a1-4)]GlcNAc
# Procedure, shortened: as §1
# [18] = target: Fuc(a1-2)Gal(b1-3)[Fuc(a1-4)]GlcNAc(b1-2)Man(a1-3)[Fuc(a1-2)Gal(b1-3)[Fuc(a1-4)]GlcNAc(b1-2)Man(a1-3)]Man(b1-4)GlcNAc(b1-4)GlcNAc
# Procedure, shortened: as §1
# [19] = target: Fuc(a1-2)Gal(b1-3)[Fuc(a1-4)]GlcNAc(b1-2)Man(a1-3)[Fuc(a1-2)Gal(b1-3)[Fuc(a1-4)]GlcNAc(b1-2)Man(a1-6)]Man(b1-4)GlcNAc(b1-4)[Fuc(a1-6)]GlcNAc(b1-4)[Fuc(a1-6)]GlcNAc
# Procedure, shortened: as §1
# [20] = target: Fuc(a1-2)Gal(b1-3)[Fuc(a1-4)]GlcNAc(b1-3)[Fuc(a1-3)[Gal(b1-4)]GlcNAc(b1-6)]Gal(b1-4)Glc
# Procedure, shortened: as §1
# [21] = target: Fuc(a1-2)Gal(b1-3)[Fuc(a1-4)]GlcNAc(b1-3)[Gal(b1-4)GlcNAc(b1-6)]Gal(b1-4)Glc
# Procedure, shortened: as §1
# [22] = target: Fuc(a1-2)Gal(b1-4)Glc
# Procedure, shortened: as §1
# [23] = target: Fuc(a1-2)Gal(b1-4)Glc6S
# Procedure, shortened: as §1
# [24] = target: Fuc(a1-2)Gal(b1-4)GlcNAc
# Procedure, shortened: as §1
# [25] = target: Fuc(a1-2)Gal(b1-4)GlcNAc(b1-2)Man
# Procedure, shortened: as §1
# [26] = target: Fuc(a1-2)Gal(b1-4)GlcNAc(b1-2)Man(a1-3)[Fuc(a1-2)Gal(b1-4)GlcNAc(b1-2)Man(a1-6)]Man(b1-4)GlcNAc(b1-4)GlcNAc
# Procedure, shortened: as §1
# [27] = target: Fuc(a1-2)Gal(b1-4)GlcNAc(b1-2)Man(a1-3)[Fuc(a1-2)Gal(b1-4)GlcNAc(b1-2)Man(a1-6)]Man(b1-4)GlcNAc(b1-4)[Fuc(a1-6)]GlcNAc
# Procedure, shortened: as §1
# [28] = target: Fuc(a1-2)Gal(b1-4)GlcNAc(b1-2)[Fuc(a1-2)Gal(b1-4)GlcNAc(b1-4)]Man(a1-3)[Fuc(a1-2)Gal(b1-4)GlcNAc(b1-2)Man(a1-6)]Man(b1-4)GlcNAc(b1-4)GlcNAc
# Procedure, shortened: as §1
# [29] = target: Fuc(a1-2)Gal(b1-4)GlcNAc(b1-3)Gal(b1-4)GlcNAc
# Procedure, shortened: as §1
# [30] = target: Fuc(a1-2)Gal(b1-4)GlcNAc(b1-3)Gal(b1-4)GlcNAc(b1-2)Man(a1-3)[Fuc(a1-2)Gal(b1-4)GlcNAc(b1-3)Gal(b1-4)GlcNAc(b1-2)Man(a1-6)]Man(b1-4)GlcNAc(b1-4)GlcNAc
# Procedure, shortened: as §1
# [31] = target: Fuc(a1-2)Gal(b1-4)GlcNAc(b1-3)Gal(b1-4)GlcNAc(b1-3)Gal(b1-4)GlcNAc
# Procedure, shortened: as §1
# [32] = target: Fuc(a1-2)Gal(b1-4)GlcNAc(b1-3)GalNAc
# Procedure, shortened: as §1
# [33] = target: Fuc(a1-2)Gal(b1-4)GlcNAc(b1-3)[Fuc(a1-2)Gal(b1-4)GlcNAc(b1-6)]GalNAc
# Procedure, shortened: as §1
# [34] = target: Fuc(a1-2)Gal(b1-4)GlcNAc(b1-3)[Fuc(a1-3)[Gal(b1-4)]GlcNAc(b1-6)]Gal(b1-4)Glc
# Procedure, shortened: as §1
# [35] = target: Fuc(a1-2)Gal(b1-4)GlcNAc(b1-6)GalNAc
# Procedure, shortened: as §1
# [36] = target: Fuc(a1-2)Gal(b1-4)GlcNAc6S
# Procedure, shortened: as §1
# [37] = target: Fuc(a1-2)Gal(b1-4)[Fuc(a1-3)]GlcNAc
# Procedure, shortened: as §1
# [38] = target: Fuc(a1-2)Gal(b1-4)[Fuc(a1-3)]GlcNAc(b1-2)Man(a1-3)[Fuc(a1-2)Gal(b1-4)[Fuc(a1-3)]GlcNAc(b1-2)Man(a1-6)]Man(b1-4)GlcNAc(b1-4)[Fuc(a1-6)]GlcNAc
# Procedure, shortened: as §1
# [39] = target: Fuc(a1-2)Gal(b1-4)[Fuc(a1-3)]GlcNAc(b1-2)[Fuc(a1-2)Gal(b1-4)[Fuc(a1-3)]GlcNAc(b1-4)]Man(a1-3)[Fuc(a1-2)Gal(b1-4)[Fuc(a1-3)]GlcNAc(b1-2)Man(a1-6)]Man(b1-4)GlcNAc(b1-4)GlcNAc
# Procedure, shortened: as §1
# [40] = target: Fuc(a1-2)Gal(b1-4)[Fuc(a1-3)]GlcNAc(b1-3)Gal(b1-4)[Fuc(a1-3)]GlcNAc
# Procedure, shortened: as §1
# [41] = target: Fuc(a1-2)Gal(b1-4)[Fuc(a1-3)]GlcNAc(b1-3)Gal(b1-4)[Fuc(a1-3)]GlcNAc(b1-3)Gal(b1-4)[Fuc(a1-3)]GlcNAc
# Procedure, shortened: as §1
# [42] = target: Fuc(a1-2)Gal(b1-4)[Fuc(a1-3)]GlcNAc(b1-3)GalNAc
# Procedure, shortened: as §1
# [43] = target: Fuc(a1-2)Gal(b1-4)[Fuc(a1-3)]GlcNAc(b1-3)[Neu5Ac(a2-6)Gal(b1-4)GlcNAc(b1-6)]Gal(b1-4)Glc
# Procedure, shortened: as §1
# [44] = target: Fuc(a1-2)Gal3S(b1-4)GlcNAc
# Procedure, shortened: as §1
# [45] = target: Fuc(a1-2)Gal6S(b1-3)GlcNAc
# Procedure, shortened: as §1
binder,measurement,setting,value
B1,glycan array binding signal (z-score),[1],0.018
same,glycan array binding signal (z-score),[2],-0.273
same,glycan array binding signal (z-score),[3],0.007
same,glycan array binding signal (z-score),[4],-0.029
same,glycan array binding signal (z-score),[5],-0.306
same,glycan array binding signal (z-score),[6],-0.249
same,glycan array binding signal (z-score),[7],-0.266
same,glycan array binding signal (z-score),[8],-0.007
same,glycan array binding signal (z-score),[9],0.568
same,glycan array binding signal (z-score),[10],0.262
same,glycan array binding signal (z-score),[11],-0.327
same,glycan array binding signal (z-score),[12],-0.302
same,glycan array binding signal (z-score),[13],0.041
same,glycan array binding signal (z-score),[14],-0.03
same,glycan array binding signal (z-score),[15],-0.478
same,glycan array binding signal (z-score),[16],-0.371
same,glycan array binding signal (z-score),[17],-0.274
same,glycan array binding signal (z-score),[18],0.368
same,glycan array binding signal (z-score),[19],0.339
same,glycan array binding signal (z-score),[20],-0.387
same,glycan array binding signal (z-score),[21],-0.509
same,glycan array binding signal (z-score),[22],-0.193
same,glycan array binding signal (z-score),[23],-0.196
same,glycan array binding signal (z-score),[24],-0.284
same,glycan array binding signal (z-score),[25],-0.263
same,glycan array binding signal (z-score),[26],0.181
same,glycan array binding signal (z-score),[27],0.577
same,glycan array binding signal (z-score),[28],0.196
same,glycan array binding signal (z-score),[29],-0.45
same,glycan array binding signal (z-score),[30],1.23
same,glycan array binding signal (z-score),[31],-0.034
same,glycan array binding signal (z-score),[32],-0.406
same,glycan array binding signal (z-score),[33],0.141
same,glycan array binding signal (z-score),[34],-0.333
same,glycan array binding signal (z-score),[35],0.307
same,glycan array binding signal (z-score),[36],-0.428
same,glycan array binding signal (z-score),[37],0.134
same,glycan array binding signal (z-score),[38],0.229
same,glycan array binding signal (z-score),[39],0.36
same,glycan array binding signal (z-score),[40],-0.382
same,glycan array binding signal (z-score),[41],-0.471
same,glycan array binding signal (z-score),[42],0.32
same,glycan array binding signal (z-score),[43],-0.03
same,glycan array binding signal (z-score),[44],-0.519
same,glycan array binding signal (z-score),[45],-0.225
